From publication PMC5963807
Results are given in words; binding and its absence hold for the method and conditions named. For part of these data: In cells and extracts the contact can be indirect. Some results given as binding are weak or reduced against the parent protein; the word gives no strength. Where a sequence is shown, tags or fusion partners need not be part of it.

T1: FLAG/His6-p33 (Tomato bushy stunt virus) (UniProt P15962)
T1 sequence: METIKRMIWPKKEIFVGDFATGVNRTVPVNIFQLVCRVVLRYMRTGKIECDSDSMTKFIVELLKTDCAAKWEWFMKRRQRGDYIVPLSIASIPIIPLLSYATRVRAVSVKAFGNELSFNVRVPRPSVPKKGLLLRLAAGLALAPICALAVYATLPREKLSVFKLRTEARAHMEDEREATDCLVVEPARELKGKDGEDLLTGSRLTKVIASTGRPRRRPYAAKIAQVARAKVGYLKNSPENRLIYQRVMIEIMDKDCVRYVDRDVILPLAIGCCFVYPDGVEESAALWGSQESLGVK

T2: nYFP-p33 (in yeast) (Tomato bushy stunt virus) (UniProt P15962)
T2 sequence: T1 sequence

T3: TBSV p33 replication protein (split-ubiquitin bait) (Tomato bushy stunt virus) (UniProt P15962)
T3 sequence: T1 sequence

T4: Ufe1p (split-ubiquitin bait) (yeast (S. cerevisiae)) (UniProt P41834)
T4 sequence: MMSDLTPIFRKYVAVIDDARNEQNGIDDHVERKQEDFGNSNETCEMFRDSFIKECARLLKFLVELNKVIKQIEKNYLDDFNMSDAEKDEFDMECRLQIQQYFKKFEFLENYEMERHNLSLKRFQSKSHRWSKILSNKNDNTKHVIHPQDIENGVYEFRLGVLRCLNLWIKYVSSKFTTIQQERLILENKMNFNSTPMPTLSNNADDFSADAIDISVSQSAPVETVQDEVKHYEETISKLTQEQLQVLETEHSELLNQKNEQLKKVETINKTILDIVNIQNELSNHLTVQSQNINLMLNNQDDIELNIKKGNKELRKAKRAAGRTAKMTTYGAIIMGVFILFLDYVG

B1: 3xHA-tagged Use1p (protein, UniProt P53146 1-245)
chain: MAETSNDPFLSYVLSSKQLTNLNRLRRKAVTKQLGSSDDNKVSEEFLRYQHTYQREAFEYLQTKHDAHKIMESQYEQYQSSSKTRRYSIDLDSVDAVDTESQTEYPNEEFIDRNEDSEAVMELRKRLLGKGQNKGLGYETTKSVDRQIEDQDTLQQDLIQDMSKLVGSLKQGAVAFQSALDEDKQVLGAAEIGIQVASQGLMDVSGKLRKYDKSKLSYLFYITVFIFMILGLVFTFIIIQLFPAL
B2: 3xHA-tagged Ufe1p (protein, UniProt P41834 1-346)
chain: T4 sequence
B3: Scs2-cYFP (protein, UniProt P40075 1-244)
chain: MSAVEISPDVLVYKSPLTEQSTEYASISNNSDQTIAFKVKTTAPKFYCVRPNAAVVAPGETIQVQVIFLGLTEEPAADFKCRDKFLVITLPSPYDLNGKAVADVWSDLEAEFKQQAISKKIKVKYLISPDVHPAQNQNIQENKETVEPVVQDSEPKEVPAVVNEKEVPAEPETQPPVQVKKEEVPPVVQKTVPHENEKQTSNSTPAPQNQIKEAATVPAENESSSMGIFILVALLILVLGWFYR
B4: Osh6-cYFP (protein, UniProt Q02201 1-448)
chain: MGSKKLTVGSDSHRLSKSSFSSNKSSHSATKDQPIDTDDIDEDDESGHNIILNIISQLRPGCDLTRITLPTFILEKKSMLERVTNQLQFPEFLLQAHSEKDPLKRFLYVMKWYLAGWHIAPKAVKKPLNPVLGEYFTAYWDLPNKQQAYYISEQTSHHPPECAYFYMIPESSIRVDGVVIPKSRFLGNSSAAMMDGSTVLQFLDIKDGNGKPEKYVLTQPNVYVRGILFGKMRIELGDHMIIKSPNFQADIEFKTKGYVFGTYDAIEGTVKDYDGNAYYEISGKWNDVMYLKDLKQPRSSPKVFLDTHKESPLRPKVRPLSEQGEYESRKLWKKVTDALAVRNHPVATEEKFQIEDHQRQLAKKRIEDGVEFHPKLFRRSKPGEDLDYCIYKNIPVDEDPEKQIRSILQIAPILPGQQFTDKFFIPAFEKIKSQKKMIENEKQNPAKQ
B5: Ufe1-cYFP (protein, UniProt P41834 1-346)
chain: T4 sequence
B6: Erg9p, N-terminally tagged split-ubiquitin prey (enzyme, UniProt P29704 1-444)
chain: MGKLLQLALHPVEMKAALKLKFCRTPLFSIYDQSTSPYLLHCFELLNLTSRSFAAVIRELHPELRNCVTLFYLILRALDTIEDDMSIEHDLKIDLLRHFHEKLLLTKWSFDGNAPDVKDRAVLTDFESILIEFHKLKPEYQEVIKEITEKMGNGMADYILDENYNLNGLQTVHDYDVYCHYVAGLVGDGLTRLIVIAKFANESLYSNEQLYESMGLFLQKTNIIRDYNEDLVDGRSFWPKEIWSQYAPQLKDFMKPENEQLGLDCINHLVLNALSHVIDVLTYLAGIHEQSTFQFCAIPQVMAIATLALVFNNREVLHGNVKIRKGTTCYLILKSRTLRGCVEIFDYYLRDIKSKLAVQDPNFLKLNIQISKIEQFMEEMYQDKLPPNVKPNETPIFLKVKERSRYDDELVPTQQEEEYKFNMVLSIILSVLLGFYYIYTLHRA
B7: Use1p, split-ubiquitin prey (protein, UniProt P53146 1-245)
chain: B1 chain
B8: Dsl1p, C-terminally tagged split-ubiquitin prey (protein, UniProt P53847 1-754)
chain: MESLFPNKGEIIRELLKDPLILKNDSKRSNGSELELDSSDLLQREAILANELNILDNLKTFLNLIKEVKTNLNILELENCYYSLQSLRKKMRNNAAYLKQSFNFQQSISTYVDTLHLELVSTLYKILTNGFWKITENSIQFTPTVEWGKDKVHIEYDTFMDFVAQQYFPKGSLDNQAWFILDMTSADSQEQVRAKLNTIMKEYMNLSRIVSMIKNSIFISGKEISYENEKNILVFSKSSSHGQHCVSTVLTSFEAVCDFMLDGLAFRDRKTLSYELGPLFNTEFTKFVKNNASIILESLDSPLKNLVSVINNKLTRLVAKSEVTNWTHSGKEIQDLLMNKQLYYNLLLDKVLESHISEIRSIFEDPKKSWQNLEVVELTTSNTNTMSEKIGKNDSDVQNEKELHNAVSKDDDWNWEVEDDDADAWGDEIDVNIDDEEEKTNQEKEKEPEEEENAWDEAWAIDENIDDASLENGKEHLKAHDVGSLDKDHIEVTQLPKLFLAISQNFKSSFADSHVDEQYFAYKYNLLQTSYMAMCTANFSHNWCQLYVDMRYLIERDEKLYRIKELTRNLLETKLNMKYRIVCQLIRHQLTEFRENERNPSWDATIEKLLPYILKEIVRPLQKIRGEEGSRYLLSFLNFLYNDCVTKEILKWQIISEVNSENLGELVSLLVNNTDIQLLAKEPSYKKMREKFATMGKFLPLHLKEIMEMFYNGDFYLFATDELIQWIELLFADTPLRRNAIDDIYEIRGTALDD
B9: Sec20p, split-ubiquitin prey (protein, UniProt P28791 1-383)
chain: MVVTFLQDLEVLQDALLNNLQKLSAISRRKESGESKHDNKDSFAAIANEHNDEEEEIEFEDLVNIIESKVSDFESVLKCSIVEMTYKYPELKLQWEKSPRYDQCDKLHIVKLDKQMNEDIYAQLVEELDFVLQFVDWFYCYRLKVKEILRQHHKRDLAWNDEKRDRAIKFHAVDYDKLHQGTSSSSSLTSTSMEKASTREKLLSKTKQLTNNLVRGNQILQSGILQSDLNLDELRAQTNSLTQIDDKYTQFETVFKKTADLVKVLENASHQEKRDVYLSLGFLLCCVSWVLWRRIFKLPVKLGLWLLFKFFKGILVTLGLVKSYAGSSSSLQAPSLVLNAPILATTTTSSATSVEPFASVSAVSSIQRAVDEAVDRIVSHDEL
B10: Ufe1p, N-terminally tagged split-ubiquitin prey (protein, UniProt P41834 1-346)
chain: T4 sequence

target: T1, FLAG/His6-p33 (Tomato bushy stunt virus); test: co-IP; FLAG-p33 immobilized on a FLAG column from the detergent-solubilized membrane fraction of yeast; eluted proteins blotted with anti-HA; His6-p33 extract as negative control

Binder | binding
B1 | binds
B2 | binds

target: T2, nYFP-p33 (in yeast) (Tomato bushy stunt virus); test: split reporter; BiFC in yeast, nYFP-p33 with cYFP-tagged host protein, confocal microscopy; for Scs2 and Osh6 also with co-expressed dominant-negative Ufe1ΔTM (signal greatly reduced)

Binder | binding
B3 | binds
B4 | binds
B5 | binds

target: T3, TBSV p33 replication protein (split-ubiquitin bait) (Tomato bushy stunt virus); test: two-hybrid; split-ubiquitin-based membrane yeast two-hybrid assay (MYTH); bait co-expressed with NubG-tagged prey in yeast; empty prey vector (NubG) as negative control

Binder | binding
B6 | no binding
B7 | binds
B8 | binds weakly
B9 | binds weakly
B10 | binds

target: T4, Ufe1p (split-ubiquitin bait) (yeast (S. cerevisiae)); test: as above

Binder | binding
B6 | binds
B7 | binds
